Experimental findings from US3957779A, “Benzo-1,2,4-triazines” (Bayer Aktiengesellschaft, priority 1972, dated 1976) are described below.

For this experiment, the system named is Staphyloccus aureus. Put plainly: In vivo survival of mice infected intraperitoneally with Staphylococcus aureus. The note with it: 50 mg/kg single oral dose 30 minutes after infection; 12 mice; untreated controls: none survived. The method, then: 12 white mice of strain CF1, which had been infected intraperitoneally each with about 1.5 × 10^8 Staphyloccus aureus organisms, were treated 30 minutes after the infection with 50 mg/kg of the compound from Example 13 in a single oral dose. […] Of 12 un-treated control animals, no animals survived after 24 hours.

On to `NC(=O)Nc1n[n+]([O-])c2ccccc2[n+]1[O-]` [Example 13, 1,4-dioxo-benzo-1,2,4-triazin-3-yl-urea], for which the “survival of infected animals after 24 hours” value is listed as “All animals survived the infection after 24 hours”.
